Laboratory results as given in PubChem BioAssay AID757 (NMMLSC, 2007).
The campaign covered roughly 190,000 compounds. About 520 (0.27%) were called active. Inconclusive means that the source gave no clear call. Such entries were picked first, then a sample of the others.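 Rule for the calls: active = GTP binding activity at least 20 points away from the 100% control level, either lower or higher; inconclusive = compound flagged as likely green fluorescent, judged across all proteins; inactive = the rest.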 Where a SMILES comes first, the peptide text is derived from it. [ ]: non-standard residue; d: D form. The star is where a group is joined. ξ: configuration not given here. Boc = CC(C)(C)OC(=O)*; NHBn = c1ccc(CN*)cc1; ξV = CC(C)C(N)C(=O)O

Biological target: Ras-related C3 botulinum toxin substrate 1 (Homo sapiens) (UniProt P63000)
Assay: wildtype Rac1 GTP binding modulators, primary screen, biochemical, GST-Rac1 beads, flow cytometry, multiplex (AID 757)
Conditions: fluorescent GTP binding, at 10 µM, actives lie on both sides, 0 = cold GTP competed, 100 = untreated

| Compound | GTP binding activity (% of control) |
| --- | --- |
| CCNC(=O)n1nccc1C(C)Oc1cccc(C(F)(F)F)c1 (centres undefined) | inactive: 101% |
| O=C1/C(=C/c2cccnc2)SC(=S)N1CC1CCCO1 (centres undefined) | inconclusive: 98% |
| CC(=O)Nc1ccc(NC2=C(Cl)C(=O)c3ccccc3C2=O)cc1 | inconclusive: 94% |
| CCn1cnc2c1c(=O)n(CC(=O)Nc1cc(C)on1)c(=O)n2Cc1ccccc1 | inconclusive: 113% |
| Cc1c(Cl)cccc1NC(=O)CC1SCCNC1=O (centres undefined) | inconclusive: 107% |
| COc1cc(C(=O)N(CCc2ccccc2)C2CC3CCC(C2)N3C)cc(OC)c1OC (centres undefined) | inconclusive: 112% |
| CC(CCCC(C)(C)O)CC1C2=C(CCCC2=O)OC2=C1C(=O)CCC2 (centres undefined) | inactive: 100% |
| COc1ccc(OC)c(-c2c3cc(O)c(=O)cc-3oc3cc(O)c(O)cc23)c1 | inconclusive: 170% |
| COCCNC(=O)CC(=O)N/N=C/c1ccc(C(=O)OC)cc1 | inactive: 103% |
| Cc1ccc(C)c(Cn2c(C(C)O)nc3ccccc32)c1 (centres undefined) | inconclusive: 101% |
| Cc1cc(=O)oc2ccc(OCC(=O)N3CCC(C)CC3)cc12 | inconclusive: 105% |
| Cc1ccc(NC(=O)CCn2nnc3ccccc32)cc1 | inactive: 102% |
| CCc1ccc(NC(=O)CSc2nc3n[nH]c(C)c3c(=N)n2-c2cccc(OC)c2)cc1 | inconclusive: 86% |
| CCN(CC)CCN1C(=O)c2ccccc2NC1c1cc(OC)c(OC)c(OC)c1 (centres undefined) | inconclusive: 106% |
| CCC(C)(C)NC(=O)CN(Cc1ccc2c(c1)OCO2)C(=O)CCC(=O)Nc1ccccn1 | inconclusive: 105% |
| CCOC(=O)C(/C=C(\C#N)C(=O)OCC)=C(/N)N1CCN(c2ccccc2)CC1 | inconclusive: 105% |
| COc1cc(/C=C/C(=O)OCC(=O)Nc2ccc(S(=O)(=O)N3CCCC3)cc2)ccc1O | inconclusive: 100% |
| O=C(Nc1nccs1)c1ccc2c(=O)n3c(nc2c1)CCCCC3 | inactive: 115% |
| Cc1ccc(S(=O)(=O)N(C)C)cc1NC(=O)COC(=O)c1ccc(Cl)cc1 | active: 144% [activator] |
| O=C(CSc1nnc(SCc2ccc(Cl)cc2)s1)c1ccc2c(c1)OCO2 | inconclusive: 93% |
| Cc1cc(=O)[nH]c(N/N=C/c2c(C)nn(-c3ccccc3)c2C)n1 | inconclusive: 95% |
| Cc1ccsc1/C=C/c1ccc2cccc(O)c2n1 | inactive: 109% |
| O=C(Nc1ccc(S(=O)(=O)N2CCCc3ccccc32)cc1)C1CCCO1 (centres undefined) | active: 120% [activator] |
| NC(=O)NOCc1ncc(C(F)(F)F)cc1Cl | active: 120% [activator] |

| Compound | GTP binding activity (% of control) |
| --- | --- |
| COc1cc2ncnc(NCc3ccco3)c2cc1OC | inconclusive: 92% |
| CC(NC(=O)c1ccc(C23CC4CC(CC(C4)C2)C3)cc1)C(=O)O (centres undefined) | inactive: 100% |
| Cc1ccc(/C=C2\SC(=S)N(CC(=O)Nc3cccnc3)C2=O)cc1 | inactive: 93% |
| Cc1ccccc1OCCn1cnc2cc([N+](=O)[O-])ccc2c1=O | inconclusive: 91% |
| COc1ccc2nc(NC(=O)C(NS(=O)(=O)c3cccc4nsnc34)C(C)C)sc2c1 (centres undefined) | inconclusive: 105% |
| Cc1cc(C)n(C(=O)Cn2nc([N+](=O)[O-])cc2C)n1 | inconclusive: 91% |
| CCC(=O)Oc1ccc(C(=O)Nc2ccc([N+](=O)[O-])cc2)cc1 | inactive: 99% |
| Cc1ccc(C(=O)C(OC(=O)c2cnccn2)c2ccccc2)cc1C (centres undefined) | inconclusive: 102% |
| Cc1c(CCC(=O)O)c(=O)oc2cc(O)ccc12 | inactive: 100% |
| COc1ccc(C)cc1NC(=O)NCc1ccccn1 | inactive: 103% |
| O=c1c2[nH]c3ccccc3c2ncn1Cc1cccnc1 | inconclusive: 105% |
| CC(C)(C)NC(=O)CN(C(=O)Cn1nnc(-c2ccc(Cl)cc2)n1)C1CCN(Cc2ccccc2)CC1 | inactive: 101% |
| O=C(O)c1c2c(nc3ccc(S(=O)(=O)N4CCC(C(=O)NC5CCCC5)CC4)cc13)CCCCC2 | inconclusive: 99% |
| O=C(COn1nnc2ccc(Cl)cc21)NCc1ccccc1 | inconclusive: 37% |
| O=S(=O)(c1cccc(C(F)(F)F)c1)N1CCC(c2cc(-c3cccc4ccccc34)n[nH]2)CC1 | inconclusive: 99% |
| Cc1nnc(SCc2cccc(CSc3nnc(C)s3)c2)s1 | inconclusive: 105% |
| CCCCNC(=O)/C(=C/c1ccccc1)NC(C)=O | inconclusive: 105% |
| CCCc1nc2c(nnn2Cc2ccccc2Cl)c(=O)[nH]1 | inactive: 94% |
| CCCCCCCC(=O)N/N=C(\C)c1ccc(O)cc1O | inconclusive: 96% |
| O=C1/C(=C/c2ccc(N3CCOCC3)o2)SC(=Nc2ccccc2)N1CCc1c[nH]c2ccccc12 | inconclusive: 141% |
| CC(C)OCCCNC(=O)CNC(=O)c1ccc(Cl)c(Cl)c1 | inactive: 102% |
| Cc1nnc(N2CCOCC2)c2nn(-c3cccc(Cl)c3)c(C)c12 | inconclusive: 166% |
| O=C(COc1ccccc1[N+](=O)[O-])NCCC1=CCCCC1 | inactive: 99% |
| Cc1nc2cccc(C)n2c(=O)c1Cl | active: 120% [activator] |

| Compound | GTP binding activity (% of control) |
| --- | --- |
| N/C(=N\OC(=O)Oc1ccccc1)c1cccc([N+](=O)[O-])c1 | inactive: 104% |
| Cn1c(NCc2c[nH]c3ccccc23)nc2ccccc21 | inconclusive: 90% |
| CC(=O)OCC1=C(C(=O)O)N2C(=O)C(NC(=O)c3ccc(COc4cccc(Cl)c4Cl)o3)C2SC1 (centres undefined) | inconclusive: 87% |
| COc1ccc(-n2nc3ccc(NS(C)(=O)=O)cc3n2)cc1Cl | inconclusive: 92% |
| Cn1nc(-c2ccccc2)c(CN2CCN(c3ncccn3)CC2)c1Cl | inactive: 96% |
| COC(=O)c1ccc(CSc2ccc3nnc(-c4ccccn4)n3n2)o1 | inconclusive: 89% |
| O=C(Nc1ccc2nc3ccccc3nc2c1)c1ccccc1 | inconclusive: 85% |
| CCc1cc(=O)[nH]c(SCCC(F)=C(F)F)n1 | inactive: 96% |
| CCOP(=O)(OCC)C(Nc1ccccn1)c1ccccc1 (centres undefined) | inconclusive: 107% |
| CCN(CC)S(=O)(=O)c1ccc2c(c1)c(=O)c(C(=O)N1CCc3ccccc3C1)cn2C | active: 132% [activator] |
| O=C1ON=C(c2cccc([N+](=O)[O-])c2)/C1=C/c1ccc(O)cc1 | inconclusive: 91% |
| O=C(O)c1cccc(Nc2cc(Cl)c3nonc3c2[N+](=O)[O-])c1 | inconclusive: 83% |
| O=C(O)CCC(=O)c1cccc2ccccc12 | inconclusive: 108% |
| CC(C)CN(CC(C)C)C(=S)Nc1ccc(Cl)cc1 | inactive: 90% |
| COc1ccc(NC(=O)C(NC(=O)c2ccc(=O)[nH]c2)c2ccc(C)cc2)cc1 (centres undefined) | inactive: 104% |
| C=CCn1c(SCC(=O)NC2CCCCC2)nnc1C1CCCCC1 | inconclusive: 103% |
| CC1=C(C(=O)N2CCOCC2)C(c2ccccc2F)C2=C(CC(C)(C)CC2=O)N1 (centres undefined) | inconclusive: 109% |
| Cc1noc(C)c1COc1cccc(C(=O)OCCOc2ccc(F)cc2)c1 | inconclusive: 96% |
| CCCOc1ccc(Cc2c(Cl)nc(SC)nc2NC)cc1 | inconclusive: 91% |
| O=C(O)CCC(=O)c1c[nH]c2ccccc12 | inconclusive: 110% |
| O=C(CNC(=S)N(CCCN1CCOCC1)Cc1cccs1)NCCN1CCOCC1 | inconclusive: 103% |
| CNc1ncc(C(=O)c2ccc(Br)cc2)s1 | active: 121% [activator] |
| Clc1ccc(-c2nnc3n2CCCS3)cc1 | inconclusive: 97% |
| O=C(O)/C=C/C(=O)Nc1cccnc1 | active: 34% |

| Compound | GTP binding activity (% of control) |
| --- | --- |
| Cc1ccc(/C=C/C(=O)NCc2cccs2)c(C)c1 | inconclusive: 92% |
| COc1ccc(C)cc1NC(=O)c1ccoc1C | inconclusive: 104% |
| OC(CNCCc1ccc(C(F)(F)F)cc1)COc1ccc2ccccc2c1 (centres undefined) | inconclusive: 87% |
| O=C(O)CC(C(=O)OC1CCCCC1)N1CCOCC1 (centres undefined) | inconclusive: 97% |
| Cc1cc2c(cc(C(=O)OCC(=O)NCc3cccs3)n2C(C)C)o1 | inactive: 104% |
| CC(C)C(NC(=O)CNC(=O)OC(C)(C)C)C(=O)NCc1ccccc1 (stereo not drawn) (Boc-Gly-[ξV]-NHBn) | inconclusive: 101% |
| COc1cc(-c2nnc(CSc3nnc(Nc4ccc(Oc5ccccc5)cc4)s3)o2)cc(OC)c1OC | inactive: 96% |
| CC(C)(C)c1nc2scc(-c3ccc(Br)cc3)c2c(=O)o1 | inconclusive: 92% |
| O=C(Cn1cnc2cc([N+](=O)[O-])ccc2c1=O)NCc1ccccc1 | inconclusive: 91% |
| Cc1ccc2cccc(NC(=S)NC(=O)c3c(Br)cnn3C)c2n1 | inconclusive: 103% |
| Cc1cccc(C(=O)NC2C(=O)NNC2c2ccc(Cl)cc2)c1 (centres undefined) | inconclusive: 93% |
| c1ccc(CCNc2ccnc3cc4ccccc4cc23)cc1 | inconclusive: 90% |
| Cc1cccc(N2C(=O)CSC23CCCCC3)c1 | inactive: 107% |
| CN(c1ccc(C(=O)O)cc1)S(=O)(=O)c1ccc(Cl)cc1 | inconclusive: 97% |
| CCOC(=O)Cc1cnc(NC(=O)CSc2nc(N)cc(N)n2)s1 | inconclusive: 86% |
| Cc1ccc(CSc2ncccc2C(=O)O)cc1 | inconclusive: 137% |
| COc1ccc(Nc2nc(-c3c(C)nc4ncccn34)cs2)cc1 | active: 65% |
| Nc1nc(SCC(=O)Nc2cccnc2Cl)n[nH]1 | inconclusive: 85% |
| COc1ccc(NC(=O)CN2CCc3ccccc3C2)cc1S(=O)(=O)N1CCOCC1 | inconclusive: 104% |
| O=C1N=C2SCCN2/C1=C\c1c(Cl)cccc1Cl | inconclusive: 103% |
| COc1ccccc1Oc1ccccc1C(=O)O | active: 130% [activator] |
| Cc1nn(-c2ccccc2)c(C)c1C(=O)OCC(=O)NCc1ccco1 | inconclusive: 99% |
